Reference: the supplement of paper PMC3334620
The full ranking holds about 33,000 sequences; the median of “E-score (-0.5 to 0.5)” is about -0.056, and the highest 2% start at about 0.38. This is one part of the list.

Biological target: Stb4 (UniProt P50104)
Experiment: PBM E-score (8-mer binding enrichment) (E-score (-0.5 to 0.5)); higher = stronger / more preferred TF binding; most listed sequences are background and not binding sites
Conditions: protein concentration: 200 nM; construct: GST-DNA-binding domain
Outline: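 Masliner-normalised scans of fluorescent anti-GST signal were the basis for scoring. That signal came from GST-tagged yeast transcription factors applied at about 100-200 nM to double-stranded universal all-10-mer Agilent arrays on fresh or once-stripped slides. Each ungapped eight-base word, pooled with its reverse complement, received an E-score from the Universal PBM Analysis Suite.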

| Sequence | PBM E-score |
| --- | --- |
| CGAGTAAC | 0.166 |
| CCCCAACG | -0.229 |
| GTGTATCA | 0.0958 |
| GGACCCTA | -0.144 |
| GCTGCGGA | 0.152 |
| CAGCACAC | -0.157 |
| ACAACAAG | -0.196 |
| AAGTTAGG | 0.0911 |
| ACTCCATC | 0.182 |
| AGTGTCAG | -0.286 |
| CTTAGGGA | -0.165 |
| ACTCGTCA | -0.167 |
| ATTTACAA | -0.0769 |
| TCCGTCAA | 0.25 |
| ATAACTTG | -0.227 |
| AATTTCAG | -0.327 |
| AATAACCG | 0.289 |
| CCTTGCCC | -0.045 |
| AAAACTTA | 0.114 |
| AGCCAAGG | -0.246 |
| CTAGTCGC | -0.225 |
| CAGGAACA | -0.199 |
| CTAGACAA | -0.104 |
| AACTAGCC | -0.0172 |
| GAAGCGGC | -0.00439 |

| Sequence | PBM E-score |
| --- | --- |
| GACGTGAA | -0.0204 |
| AGGGGGGC | -0.0911 |
| ACGGCCCC | -0.209 |
| ACAGCAAG | -0.159 |
| CAACGTGA | -0.18 |
| ATGATGCG | -0.113 |
| CCGCGCCG | 0.328 |
| CCCGAGTC | 0.395 |
| CACACCAC | -0.0063 |
| AATCCTTC | 0.00569 |
| TACGTTCA | -0.336 |
| AAACTGCG | -0.144 |
| ATGCGCGG | 0.219 |
| GTTTGTTA | -0.0446 |
| ATGGCAGA | -0.0535 |
| ATTGATCG | 0.0261 |
| TACATATA | -0.00593 |
| CCATCTTC | 0.00288 |
| TCACAGGA | -0.213 |
| TGTTGTAA | -0.0379 |
| AGACTAGA | -0.168 |
| GGTCCGAA | 0.416 |
| ACACCAAC | -0.112 |
| GCGGAACC | 0.284 |
| ACGCTACA | -0.107 |

| Sequence | PBM E-score |
| --- | --- |
| ACCTAGAT | -0.0686 |
| CGTCCGTA | 0.0345 |
| CTTGTCCA | -0.0611 |
| CAACAATC | -0.121 |
| CTTATTTA | -0.164 |
| TAGGCCGA | 0.184 |
| GCACCGGA | 0.329 |
| CCAATACC | 0.0344 |
| CTGTTTTA | 0.0688 |
| CAACATGC | -0.165 |
| CGAGTGGA | 0.122 |
| AAAAGGTC | -0.0607 |
| CACGTACG | -0.0829 |
| TGAGAGAA | -0.309 |
| AGACGGTC | -0.103 |
| ATAGCGAA | -0.0663 |
| GTCACAGA | -0.205 |
| CCCTCTAA | -0.182 |
| CAACTCGC | -0.117 |
| CCGTAGAC | 0.166 |
| ACCTTCCT | -0.342 |
| AACCCCTC | -0.0278 |
| CAATAACG | -0.115 |
| TCTGTGAA | -0.102 |
| CCCGATAA | 0.248 |

| Sequence | PBM E-score |
| --- | --- |
| GTATTGCA | -0.0744 |
| TATATTCA | -0.105 |
| CCAAGTGG | -0.187 |
| CGCTCGGA | 0.463 |
| TAGTACCA | -0.0805 |
| CAGTTATA | -0.00551 |
| CGGCGCGC | 0.182 |
| ATCCAAAC | -0.125 |
| AGATTCAC | -0.0606 |
| AACCAGCC | 0.103 |
| TATATGGA | -0.233 |
| ACGTGTTC | -0.0476 |
| TACGCTAA | -0.105 |
| CAAAAAAA | 0.165 |
| CATCAGCG | -0.0429 |
| AGTTCCAC | -0.0927 |
| AGCCGAGC | 0.448 |
| CATGCGTC | -0.0859 |
| ATATCTCG | 0.186 |
| CGGTATGA | 0.182 |
| GAGCGTCA | 0.026 |
| GAGCGAAC | -0.11 |
| TCAATACA | -0.0858 |
| GTGTGCTA | -0.0288 |
| ATAACACC | 0.184 |

| Sequence | PBM E-score |
| --- | --- |
| AATGAAAG | -0.0359 |
| AAGAGTCA | -0.097 |
| AGCGAGTG | -0.0337 |
| AGTCGACG | 0.0306 |
| AGAGCACC | -0.228 |
| ATTAACTC | 0.0369 |
| TGGCGCAA | -0.128 |
| GCCGTGAA | 0.0921 |
| GGTGTCTA | -0.13 |
| AGGGTAGC | -0.199 |
| GGGTGAAA | 0.169 |
| AGATTAAG | -0.0284 |
| CGCGCGCA | 0.147 |
| ATCCTCGC | -0.0124 |
| GCACGTCC | -0.0131 |
| TGTTCTAA | -0.0848 |
| AACGGGAC | 0.158 |
| CACCCCGA | 0.284 |
| CCTAGAGG | -0.22 |
| GTTGACCA | -0.0923 |
| AAGTTACT | -0.0331 |
| ACTATACC | 0.0944 |
| CGTACGGA | 0.285 |
| ACCCGGGC | 0.326 |
| ATAAGCAG | -0.0922 |

| Sequence | PBM E-score |
| --- | --- |
| AAATGGTT | -0.175 |
| AATATAAC | 0.109 |
| CGCCCGAC | 0.21 |
| ATGGGCCA | -0.0993 |
| ACACGAGA | -0.19 |
| CAGTCCAA | -0.158 |
| GTAGGATA | -0.0485 |
| ACGAGAAG | -0.264 |
| CTAGTACC | -0.0491 |
| TAAGCATA | -0.128 |
| ATGAAGTC | -0.117 |
| AATCCACG | -0.166 |
| CTACTCGA | -0.121 |
| TCACCGAA | 0.249 |
| AATTAGCA | 0.118 |
| ACGTGATA | -0.167 |
| AAAAAAGA | -0.131 |
| ACCGAAAG | 0.231 |
| AGACAGCA | -0.0333 |
| CATACTCG | 0.104 |
| TACTACAA | -0.0719 |
| AAGTGTTA | -0.0763 |
| ACATAAAC | -0.0698 |
| AGCGGACA | 0.0418 |
| AATAAACC | 0.179 |

| Sequence | PBM E-score |
| --- | --- |
| ATTAACGC | -0.0923 |
| TCGCCAGA | -0.24 |
| CCCTTTGC | 0.00773 |
| ATTTCGGC | 0.371 |
| CAGCTGCC | 0.146 |
| AGTGTTTA | -0.0553 |
| AGCCAAGA | -0.22 |
| TCCGATCA | 0.358 |
| GTCAGTGA | -0.269 |
| CACTACGG | 0.0783 |
| ACGACGGC | -0.0199 |
| ACATATAT | -0.0249 |
| ACTTTGCC | 0.12 |
| AGTGACGG | 0.137 |
| ATTGGACG | -0.149 |
| GTATATAA | -0.108 |
| AGAGAAAA | -0.034 |
| CAAGCATG | -0.243 |
| AATCGGGC | 0.159 |
| CAATTCAA | -0.198 |
| ACCTTAAT | -0.0966 |
| CTAACGGC | 0.107 |
